The supplement of paper PMC8728848
This is one part of the list.

Assays:
Assay in all cases: glycan array binding signal (z-score within array); higher = stronger binding
Settings in all cases: glycan notation: IUPAC condensed, linker removed
[1] = molecular target: GlcNAc(b1-3)Gal(b1-4)GlcNAc(b1-3)Gal(b1-4)GlcNAc(b1-2)Man(a1-3)[GlcNAc(b1-3)Gal(b1-4)GlcNAc(b1-3)Gal(b1-4)GlcNAc(b1-2)Man(a1-6)]Man(b1-4)GlcNAc(b1-4)[Fuc(a1-6)]GlcNAc
Summary of the method: (§1)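 Arrays were curated from the Consortium for Functional Glycomics database, 3228 in total, and kept only where the protein sequence was available. Binding is expressed as a within-array Z-score. This score was averaged across arrays of the same protein sequence at different concentrations or buffers and across linkers, and negative values can be read as non-binding.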

[2] = molecular target: GlcNAc(b1-3)Gal(b1-4)GlcNAc(b1-3)Gal(b1-4)GlcNAc(b1-2)[GlcNAc(b1-3)Gal(b1-4)GlcNAc(b1-3)Gal(b1-4)GlcNAc(b1-6)]Man(a1-6)[GlcNAc(b1-3)Gal(b1-4)GlcNAc(b1-3)Gal(b1-4)GlcNAc(b1-2)Man(a1-3)]Man(b1-4)GlcNAc(b1-4)[Fuc(a1-6)]GlcNAc
Summary of the method: as §1

[3] = molecular target: GlcNAc(b1-3)Gal(b1-4)GlcNAc(b1-3)Gal(b1-4)GlcNAc(b1-3)Gal(b1-4)GlcNAc(b1-2)Man(a1-3)[GlcNAc(b1-3)Gal(b1-4)GlcNAc(b1-3)Gal(b1-4)GlcNAc(b1-3)Gal(b1-4)GlcNAc(b1-2)Man(a1-6)]Man(b1-4)GlcNAc(b1-4)GlcNAc
Summary of the method: as §1

[4] = molecular target: GlcNAc(b1-3)Gal(b1-4)GlcNAc(b1-3)Gal(b1-4)GlcNAc(b1-3)Gal(b1-4)GlcNAc(b1-2)Man(a1-3)[GlcNAc(b1-3)Gal(b1-4)GlcNAc(b1-3)Gal(b1-4)GlcNAc(b1-3)Gal(b1-4)GlcNAc(b1-2)Man(a1-6)]Man(b1-4)GlcNAc(b1-4)[Fuc(a1-6)]GlcNAc
Summary of the method: as §1

[5] = molecular target: GlcNAc(b1-3)Gal(b1-4)GlcNAc(b1-3)Gal(b1-4)GlcNAc(b1-3)Gal(b1-4)GlcNAc(b1-2)[GlcNAc(b1-3)Gal(b1-4)GlcNAc(b1-3)Gal(b1-4)GlcNAc(b1-3)Gal(b1-4)GlcNAc(b1-6)]Man(a1-6)[GlcNAc(b1-3)Gal(b1-4)GlcNAc(b1-3)Gal(b1-4)GlcNAc(b1-3)Gal(b1-4)GlcNAc(b1-2)Man(a1-3)]Man(b1-4)GlcNAc(b1-4)[Fuc(a1-6)]GlcNAc
Summary of the method: as §1

[6] = molecular target: GlcNAc(b1-3)Gal(b1-4)GlcNAc(b1-3)Gal(b1-4)GlcNAc(b1-3)Gal(b1-4)GlcNAc(b1-3)Gal(b1-4)GlcNAc(b1-2)Man(a1-3)[GlcNAc(b1-3)Gal(b1-4)GlcNAc(b1-3)Gal(b1-4)GlcNAc(b1-3)Gal(b1-4)GlcNAc(b1-3)Gal(b1-4)GlcNAc(b1-2)Man(a1-6)]Man(b1-4)GlcNAc(b1-4)GlcNAc
Summary of the method: as §1

[7] = molecular target: GlcNAc(b1-3)Gal(b1-4)GlcNAc(b1-3)Gal(b1-4)GlcNAc(b1-3)Gal(b1-4)GlcNAc(b1-3)Gal(b1-4)GlcNAc(b1-2)Man(a1-3)[GlcNAc(b1-3)Gal(b1-4)GlcNAc(b1-3)Gal(b1-4)GlcNAc(b1-3)Gal(b1-4)GlcNAc(b1-3)Gal(b1-4)GlcNAc(b1-2)Man(a1-6)]Man(b1-4)GlcNAc(b1-4)[Fuc(a1-6)]GlcNAc
Summary of the method: as §1

[8] = molecular target: GlcNAc(b1-3)Gal(b1-4)GlcNAc(b1-3)Gal(b1-4)GlcNAc(b1-3)Gal(b1-4)GlcNAc(b1-3)Gal(b1-4)GlcNAc(b1-2)[GlcNAc(b1-3)Gal(b1-4)GlcNAc(b1-3)Gal(b1-4)GlcNAc(b1-3)Gal(b1-4)GlcNAc(b1-3)Gal(b1-4)GlcNAc(b1-6)]Man(a1-6)[GlcNAc(b1-3)Gal(b1-4)GlcNAc(b1-3)Gal(b1-4)GlcNAc(b1-3)Gal(b1-4)GlcNAc(b1-3)Gal(b1-4)GlcNAc(b1-2)Man(a1-3)]Man(b1-4)GlcNAc(b1-4)[Fuc(a1-6)]GlcNAc
Summary of the method: as §1

[9] = molecular target: GlcNAc(b1-3)Gal(b1-4)GlcNAc(b1-3)Gal(b1-4)GlcNAc(b1-3)GalNAc
Summary of the method: as §1

[10] = molecular target: GlcNAc(b1-3)Gal(b1-4)GlcNAc(b1-3)GalNAc
Summary of the method: as §1

[11] = molecular target: GlcNAc(b1-3)Gal(b1-4)GlcNAc(b1-3)[GlcNAc(b1-3)Gal(b1-4)GlcNAc(b1-3)]GalNAc
Summary of the method: as §1

[12] = molecular target: GlcNAc(b1-3)Gal(b1-4)GlcNAc(b1-6)[Gal(b1-3)]GalNAc
Summary of the method: as §1

[13] = molecular target: GlcNAc(b1-3)Gal(b1-4)GlcNAc(b1-6)[GlcNAc(b1-3)Gal(b1-3)]GalNAc
Summary of the method: as §1

[14] = molecular target: GlcNAc(b1-3)Gal(b1-4)GlcNAc(b1-6)[GlcNAc(b1-3)]Gal(b1-4)GlcNAc
Summary of the method: as §1

GlcNAc(b1-3)GalNAc = molecular target: GlcNAc(b1-3)GalNAc
Summary of the method: as §1

GlcNAc(b1-3)Man = molecular target: GlcNAc(b1-3)Man
Summary of the method: as §1

[15] = molecular target: GlcNAc(b1-3)[GlcNAc(b1-4)][GlcNAc(b1-6)]GlcNAc
Summary of the method: as §1

[16] = molecular target: GlcNAc(b1-3)[GlcNAc(b1-6)]Gal(b1-4)GlcNAc
Summary of the method: as §1

[17] = molecular target: GlcNAc(b1-3)[GlcNAc(b1-6)]GalNAc
Summary of the method: as §1

[18] = molecular target: GlcNAc(b1-4)Gal(b1-4)GlcNAc
Summary of the method: as §1

GlcNAc(b1-4)GlcNAc = molecular target: GlcNAc(b1-4)GlcNAc
Summary of the method: as §1

[19] = molecular target: GlcNAc(b1-4)GlcNAc(b1-4)GlcNAc
Summary of the method: as §1

[20] = molecular target: GlcNAc(b1-4)GlcNAc(b1-4)GlcNAc(b1-4)GlcNAc(b1-4)GlcNAc
Summary of the method: as §1

[21] = molecular target: GlcNAc(b1-4)GlcNAc(b1-4)GlcNAc(b1-4)GlcNAc(b1-4)GlcNAc(b1-4)GlcNAc
Summary of the method: as §1

[22] = molecular target: GlcNAc(b1-4)[GlcNAc(b1-6)]GalNAc
Summary of the method: as §1

[23] = molecular target: GlcNAc(b1-6)Gal(b1-4)GlcNAc
Summary of the method: as §1

GlcNAc(b1-6)GalNAc = molecular target: GlcNAc(b1-6)GalNAc
Summary of the method: as §1

[24] = molecular target: GlcNAc6S(b1-3)Gal(b1-4)GlcNAc
Summary of the method: as §1

Kdn(a2-3)Gal(b1-3)GalNAc = molecular target: Kdn(a2-3)Gal(b1-3)GalNAc
Summary of the method: as §1

Kdn(a2-3)Gal(b1-3)GlcNAc = molecular target: Kdn(a2-3)Gal(b1-3)GlcNAc
Summary of the method: as §1

Kdn(a2-3)Gal(b1-4)Glc = molecular target: Kdn(a2-3)Gal(b1-4)Glc
Summary of the method: as §1

Kdn(a2-3)Gal(b1-4)GlcNAc = molecular target: Kdn(a2-3)Gal(b1-4)GlcNAc
Summary of the method: as §1

[25] = molecular target: Kdn(a2-3)Gal(b1-4)[Fuc(a1-3)]GlcNAc
Summary of the method: as §1

Kdn(a2-6)Gal(b1-4)GlcNAc = molecular target: Kdn(a2-6)Gal(b1-4)GlcNAc
Summary of the method: as §1

[26] = molecular target: Man(a1-2)Man(a1-2)Man(a1-3)Man
Summary of the method: as §1

[27] = molecular target: Man(a1-2)Man(a1-2)Man(a1-6)[Man(a1-3)]Man
Summary of the method: as §1

Man(a1-2)Man(a1-3)Man = molecular target: Man(a1-2)Man(a1-3)Man
Summary of the method: as §1

[28] = molecular target: Man(a1-2)Man(a1-3)[Man(a1-2)Man(a1-6)]Man
Summary of the method: as §1

B1: PX9961X-pdi-531-24-531 (Parabacteroides distasonis) (protein)
chain: DLTEEIHSSVIAENYYNNAGEVMAAMMRPWGHFCGTMQVAQSPWSCNELSSDCAAWPQKGRHGYDNGDWIRLHRHQWIPTDGQVVDAWKKLFEGIGYANNFLTDTENIDFEALQVPMSKAQAQAEMRVYRAYCYWYVMDMFGTAPICEKIGEINPSSKSRAELFAWIEKELNESIPSLSESKTETYGRVSKWGAYALLARLYLNAEIYTGQARWDDCIAACDELAKGGFALDKKWNDTFRADNDKRSTEIIWSIVYDEVYAKGMGWYQRWLHYAHQTGWDLQSGPWNGLVTQPTFYDSFADNDLRKIEGFLIGKQYPRKVDENGNYYYDTTAEPLKGSEEYNGQDLVFVNYIKSMTEGEENSGARSIKYEIQPGTTGDMNNDWVMFRYSEVIYNKAEALMRKNGGKATQEVVDMINSVRQRSFKAEDWEKAKYTTATLTMDEFLAEKGREFAFEGIRRTDLVRFNKFVTTSWWDKTASNEPKRNIFPIPQRQLDANANLSPNEANSLF
[1]
  glycan array binding signal (z-score): 0.078
[2]
  glycan array binding signal (z-score): 0.985
[3]
  glycan array binding signal (z-score): 1.35
[4]
  glycan array binding signal (z-score): 0.723
[5]
  glycan array binding signal (z-score): 0.524
[6]
  glycan array binding signal (z-score): 0.007
[7]
  glycan array binding signal (z-score): 0.179
[8]
  glycan array binding signal (z-score): 0.964
[9]
  glycan array binding signal (z-score): 0.188
[10]
  glycan array binding signal (z-score): -0.7
[11]
  glycan array binding signal (z-score): 0.378
[12]
  glycan array binding signal (z-score): 0.081
[13]
  glycan array binding signal (z-score): 0.02
[14]
  glycan array binding signal (z-score): -0.581
GlcNAc(b1-3)GalNAc
  glycan array binding signal (z-score): -0.942
GlcNAc(b1-3)Man
  glycan array binding signal (z-score): 0.442
[15]
  glycan array binding signal (z-score): -0.298
[16]
  glycan array binding signal (z-score): -0.559
[17]
  glycan array binding signal (z-score): 0.533
[18]
  glycan array binding signal (z-score): -0.694
GlcNAc(b1-4)GlcNAc
  glycan array binding signal (z-score): -0.388
[19]
  glycan array binding signal (z-score): 0.152
[20]
  glycan array binding signal (z-score): -0.74
[21]
  glycan array binding signal (z-score): -0.616
[22]
  glycan array binding signal (z-score): 0.25
[23]
  glycan array binding signal (z-score): 0.181
GlcNAc(b1-6)GalNAc
  glycan array binding signal (z-score): 0.172
[24]
  glycan array binding signal (z-score): -0.633
Kdn(a2-3)Gal(b1-3)GalNAc
  glycan array binding signal (z-score): 0.344
Kdn(a2-3)Gal(b1-3)GlcNAc
  glycan array binding signal (z-score): -0.169
Kdn(a2-3)Gal(b1-4)Glc
  glycan array binding signal (z-score): -0.409
Kdn(a2-3)Gal(b1-4)GlcNAc
  glycan array binding signal (z-score): -0.114
[25]
  glycan array binding signal (z-score): 0.216
Kdn(a2-6)Gal(b1-4)GlcNAc
  glycan array binding signal (z-score): 0.029
[26]
  glycan array binding signal (z-score): -0.732
[27]
  glycan array binding signal (z-score): -0.353
Man(a1-2)Man(a1-3)Man
  glycan array binding signal (z-score): 0.152
[28]
  glycan array binding signal (z-score): -0.243
